Experimental data reported in PubChem BioAssay AID1508642 (National Center for Advancing Translational Sciences (NCATS), 2021).
In all, about 43,000 compounds went through this assay and about 200 (0.47%) were called active. About 12% were inconclusive and are not listed. Calls follow the shape of the dose curve; as a rule, active = well fitted cell-killing curve with a large enough effect; inconclusive = small, poorly fitted or top-dose-only effect, or effect the other way; inactive = flat fitted curve, though single readings scatter. The list shows a part of the results.

assay: Cell viability qHTS assay in S16 Pmp22-F2sN cells; details: S16 Pmp22-F2sN Schwann cells (luciferase reporters placed in the Pmp22 gene) viability, CellTiter-Glo, 24 h; series mostly up to 57.5 µM; activity change, negative = cytotoxicity: at the top concentration; also: nearly all actives have a fitted effect of over 65% in size
Summary of the method: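 Rat S16 Schwann reporter line, 24 h treatment with library compounds delivered at 23 nL per well. Cell viability by CellTiter-Glo luminescence.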
% is scaled to controls: 0 for no effect and ±100 for the full control effect.

Compound | activity change, negative = cytotoxicity
CNC(=O)CN1C(=O)COc2ccc(S(=O)(=O)N3CCC(C)CC3)cc21 | inactive: 7.58%
Cc1ccccc1Nc1c(-c2ccc(N3CCOCC3)cc2)nc2ccc(Br)cn12 | inactive: 0.306%
CCSc1ncc(Cl)c(C(=O)Nc2cccc(Cl)c2)n1 | inactive: -1.36%
Cc1ccc(NC(=O)c2ccc(NC(=O)CCS(=O)(=O)c3cccs3)cc2)cc1F | inactive: 17.1%
COc1cccc(Cn2cc(C(=O)c3ccc(Cl)cc3)c(=O)c3ccccc32)c1 | inactive: -3.81%
COc1ccc(NC(=O)C2CCN(S(=O)(=O)c3c(C)noc3/C=C/c3cccs3)CC2)cc1Cl | inactive: -2.28%
Cc1nc2cccnc2n1C1CCN(C(=O)Nc2ccc(Cl)cc2)CC1 | inactive: -11.3%
COC(=O)Cc1c(C)c2ccc3c(c2oc1=O)CN(Cc1ccccc1Cl)CO3 | inactive: 8.45%
CCOc1ccc(-c2c(C)nn3c(C)c(C(=O)NCCc4ccc(C)cc4)cnc23)cc1OCC | inactive: 0.769%
CC1CCN(C(=O)CSc2nc(-c3ccc(F)cc3)cc(C(F)(F)F)n2)CC1 | inactive: 26.5%
CCOC(=O)c1sc(NC(=O)c2c(-c3ccccc3)c(-c3ccccc3)nn(C)c2=O)nc1C | inactive: 1.02%
Cc1cc2c(cc1S(=O)(=O)Nc1cc(C(F)(F)F)cc(C(F)(F)F)c1)OCC(=O)N2 | inactive: -18.6%
Cc1ccc(NC(=O)/C=C/c2ccccc2Cl)cc1Cl | inactive: 0.823%
COc1ccc(NC(=O)C2=C(C)Nc3nc(SCc4ccc(Cl)cc4)nn3C2c2cccc(OC)c2OC)cc1 (stereo not drawn) | inactive: -7.59%
O=C(Cn1c(=O)nc(-c2ccccc2)c2ccccc21)Nc1ccc(Cl)cc1F | inactive: 15.4%
CCCCOC(=O)c1ccc(NC(=O)c2sc3nc(C)cc(C)c3c2N)cc1 | inactive: 10.1%
COc1ccc(N(C)C(=O)Cn2cc(S(=O)(=O)N3CCN(c4ccccc4F)CC3)c3ccccc3c2=O)c(OC)c1 | inactive: -5.75%
Cc1cccc(-n2c(=O)c3ccccc3n(Cc3ccc(F)cc3)c2=O)c1 | inactive: 19.9%
CCc1ccc(Nc2nc3ccccc3nc2NS(=O)(=O)c2ccccc2)cc1 | inactive: 3.57%
Cc1ccc(-n2nc(C)c3c(C(F)(F)F)cc(-c4cccnc4)nc32)cc1Cl | inactive: -3.39%
COc1ccccc1C(=O)Nc1c(C(=O)NC(C)(C)C)oc2ccccc12 | inactive: -5.78%
COc1ccc(NC2=C(c3ccc(C(F)(F)F)cc3)C(=O)c3ccccc32)cc1 | inactive: -12.9%
COc1cccc(NC(=O)CN2C(=O)c3ccccc3Sc3ncccc32)c1 | inactive: -1.32%
Cc1ccc(-c2nc(C)c(CCNC(=O)c3ccccc3Br)s2)cc1 | inactive: -6.75%

Compound | activity change, negative = cytotoxicity
CCOC(=O)c1ccc(NC(=O)c2cn3c4c(ccc(Cl)c4c2=O)OC(C)C3)cc1 (stereo not drawn) | inactive: 0.951%
COc1cc(OC)c(N(C)C(=O)Nc2cn(CC(C)C)c(=O)c3ccccc23)cc1Cl | inactive: 4.58%
CCCc1nn2c(=O)cc(COC(=O)CNC(=O)COc3ccc(C)cc3)nc2s1 | inactive: 6.59%
CCN(c1cccc(C)c1)S(=O)(=O)c1ccc2[nH]cc(C(=O)NCCCOC)c(=O)c2c1 | inactive: -9.07%
CC(=O)Nc1nonc1-c1nnc(SCC(=O)N(C)c2ccccc2)n1C | inactive: -16%
Clc1cccc(-n2ncc3c(N4CCCCC4)ncnc32)c1 | inactive: 5.7%
O=C(Cn1cc(S(=O)(=O)Cc2cccc(Cl)c2)c2ccccc21)NCCc1ccccc1 | inactive: -1.42%
Cc1ccc(NC(=O)/C(C#N)=C/c2ccc(C(C)C)cc2)cc1C | inactive: 0.618%
CCOC(=O)c1cnc2c(C)c(Cl)ccc2c1NCCc1ccccc1 | inactive: 1.89%
COc1ccc(CNC(=O)C(=O)Nc2ccc(OC)cc2OC)cc1 | inactive: -0.644%
CCC1CN(C(=O)N2CCC(C(=O)NCc3cccc(C)c3)CC2)c2ccccc2O1 (stereo not drawn) | inactive: -4.68%
CCOc1ccccc1N(CC)C(=O)c1cc2c(=O)[nH]c3ccc(C)cc3c2s1 | inactive: 3.45%
COc1ccc(CNC(=O)c2c3c(nc4ccccc24)C(=O)N(C2CCCCC2)C3)c(OC)c1 | inactive: 0.616%
COC(=O)c1scc(-c2ccc(C)cc2)c1S(=O)(=O)Nc1cc(OC)c(OC)c(OC)c1 | inactive: 21%
O=C(Cn1c(=O)nc(-c2ccccc2F)c2cc(Cl)ccc21)N1CCN(c2ccccc2F)CC1 | inactive: 4.76%
CCCCC(CC)CNC(=O)CN1C(=O)CSc2ccc(S(=O)(=O)N3CCOCC3)cc21 (stereo not drawn) | inactive: 10.8%
O=C(c1ccc2c(c1)N(Cc1ccc(F)cc1)C(=O)c1ccccc1S2=O)N1CCC(Cc2ccccc2)CC1 (stereo not drawn) | inactive: -9.82%
CSc1cccc(Nc2nc3c(S(=O)(=O)c4ccccc4)nnn3c3ccc(Cl)cc23)c1 | inactive: -3.96%
O=C(Cn1ncc2ccc(Cl)cc21)NCc1ccc(F)cc1 | inactive: 0.29%
Cc1ccc(C)c(NC(=O)CSc2ncc(S(=O)(=O)c3ccc(C)c(Cl)c3)c(=O)[nH]2)c1 | inactive: 1.77%
Cc1c(Cl)cccc1NC(=O)Nc1nnc(N2CCCCCC2)s1 | inactive: 4.91%
Cc1ccc(C(=O)Nc2cccc(C(=O)O)c2)cc1S(=O)(=O)N1CCCC1 | inactive: 8.1%
COc1ccc(Cn2c(SCc3ccc(C(=O)NC(C)C)cc3)nc3cccnc32)cc1 | inactive: 0.926%
COc1ccccc1NC(=O)c1cccc(S(=O)(=O)N2CCCCCC2)c1 | inactive: 15.7%
